The values that follow come from PubChem BioAssay AID1159614 (National Center for Advancing Translational Sciences (NCATS), 2016).

Screen size: about 45,000 compounds; about 65 (0.1%) were called active. The call rests on the fitted dose curve; in most records, active means well fitted activation curve with a large enough effect; inconclusive means small, poorly fitted or top-dose-only effect; inactive means no such curve, though single readings can be large or run the other way. The list shows a part of the results.

Sequence of UniProt P54803 (P54803 whole entry, looked up): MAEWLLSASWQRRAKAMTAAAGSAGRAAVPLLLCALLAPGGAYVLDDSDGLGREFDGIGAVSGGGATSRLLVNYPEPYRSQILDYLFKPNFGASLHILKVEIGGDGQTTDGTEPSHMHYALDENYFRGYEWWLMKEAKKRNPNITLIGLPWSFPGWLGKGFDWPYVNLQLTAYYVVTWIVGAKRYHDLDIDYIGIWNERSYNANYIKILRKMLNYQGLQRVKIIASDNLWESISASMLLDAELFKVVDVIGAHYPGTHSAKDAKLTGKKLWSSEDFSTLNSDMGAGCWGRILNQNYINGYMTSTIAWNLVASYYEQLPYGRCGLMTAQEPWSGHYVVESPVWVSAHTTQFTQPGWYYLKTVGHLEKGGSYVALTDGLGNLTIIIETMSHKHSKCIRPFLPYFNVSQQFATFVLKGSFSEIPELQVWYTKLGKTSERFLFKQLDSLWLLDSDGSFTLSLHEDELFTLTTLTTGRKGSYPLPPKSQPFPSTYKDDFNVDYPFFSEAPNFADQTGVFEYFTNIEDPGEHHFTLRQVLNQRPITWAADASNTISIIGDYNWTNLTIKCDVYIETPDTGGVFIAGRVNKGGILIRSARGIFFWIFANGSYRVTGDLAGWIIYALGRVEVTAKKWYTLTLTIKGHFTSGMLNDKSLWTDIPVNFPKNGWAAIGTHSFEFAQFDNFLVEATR

This assay concerns the target Galactocerebrosidase (Homo sapiens) (UniProt P54803). Briefly: A Novel Cell-Based Assay to Identify Small Molecules for B -Galactocerebrosidase. Further: 0% is about no effect; nearly all actives have a fitted effect of over 65% in size. The conditions noted are these: 145M-Twi-hGALC-G270D cells (Twitcher mouse brain line with human GALC G270D), HMU-beta-Gal fluorescence, 48 h; series mostly up to 57.5 µM; activation: at the top concentration. The method, boiled down:
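Mutant human GALC (G270D), stably expressed in a Twitcher mouse brain cell line lacking endogenous GALC, is measured in live-treated cells via 6-hexadecanoylamino-4-methylumbelliferyl-β-galactoside hydrolysis (0.1 mM final, pH 5.2) with fluorescent detection.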
Take `CCCOc1ccccc1C(=O)Nc1ccc(-c2nc3ccc(C)cc3s2)cc1`: the “activation” value is inactive: -11.8%.

In the case of `Cc1cccc(Nc2cc(C)nc3nc(Cc4ccc(Cl)cc4)nn23)c1`, the “activation” value was inactive: -2.23%.

On to `COc1ccc(CNC(=O)c2ccc3c(Cl)c4c(nc3c2)CCCC4)c(OC)c1`, for which the “activation” value was inactive: -35.9%.

For the compound `Cc1cc(-c2ccccc2)nc2cc(C(=O)Nc3cc(C(F)(F)F)ccc3Cl)nn12`, the “activation” value is inactive: -11.2%.

In the case of `CCN(Cc1ccccc1)Cc1c(O)ccc2c(=O)c(-c3ccccc3Cl)coc12`, the “activation” value was inactive: 5.36%.

In the case of `CCn1cc(C(=O)NCCCOC(C)C)c(=O)c2cc(S(=O)(=O)N(C)C3CCCCC3)ccc21`, the “activation” value is inactive: -11.7%.

Turning to `CN(Cc1ccccc1)S(=O)(=O)c1ccc(F)c(C(=O)Nc2cc(Cl)cc(Cl)c2)c1`, the “activation” value was inactive: -8.31%.

On to `O=C(Nc1cc(-c2nc3cc(Cl)ccc3o2)ccc1Cl)c1cc2ccccc2o1`, for which the “activation” value was inactive: -22.8%.

As for `O=C(NCc1ccccc1)c1ccc(Cn2c(=O)c3cccn3c3cccnc32)cc1`, the “activation” value is inactive: -6.03%.

For `Cc1ccc(C)c(N2CCN(S(=O)(=O)c3ccc4c(c3)n(C)c(=O)c(=O)n4C)CC2)c1`, the “activation” value was inactive: -11.2%.

With `CCOC(=O)c1c(-c2ccccc2)csc1NC(=O)c1cc(-c2cccc(Cl)c2)on1`, the “activation” value is inactive: -7.71%.

In the case of `COc1cc(OC)c(NC(=O)CSCc2nc(-c3ccc(OC)c(OC)c3)no2)cc1Cl`, the “activation” value is inactive: -8.41%.

For the compound `CC(=O)c1cccc(NC(=O)c2ccc3c(c2)c(C)c(C)n3Cc2ccc(Cl)cc2)c1`, the “activation” value was inactive: 5.11%.

Turning to `COc1ccccc1OCCn1c(NC(=O)c2ccccc2)nc2ccccc21`, the “activation” value was inactive: -26.8%.

For the compound `Cc1ccc(NC(=O)C2CCN(c3ncccn3)CC2)cc1F`, the “activation” value was inactive: 0.778%.

As to `Cc1ccc(CCNC(=O)c2ccc(Cn3c(=O)c4cccn4c4cccnc43)cc2)cc1`, the “activation” value is inactive: -4.15%.

As for `Cc1ccc(-n2c(SCC(N)=O)nc3c(oc4ccccc43)c2=O)cc1`, the “activation” value is inactive: -17.2%.

Regarding `O=C(COc1cccc(Cl)c1)N1CCC(c2nc3ccccc3s2)CC1`, the “activation” value is inactive: -17%.

Regarding `CCn1c(CNC(=O)C23CC4CC(CC(C4)C2)C3)nnc1SCC(=O)Nc1ccc(OC)cc1`, the “activation” value is inactive: -12.7%.

As to `CCc1cc2cc(OC)c(OC)cc2c(Cc2ccccc2)n1`, the “activation” value was inactive: -12%.

On to `O=C(O)CNC(=O)CNC(=O)CNC(=O)CSC(=O)c1ccccc1`, for which the “activation” value is inactive: -8.71%.

`CC1(C)S[C@@H]2[C@H](N=CN3CCCCCC3)C(=O)N2[C@H]1C(=O)O`: the “activation” value was inactive: -17.9%.

For the compound `COc1ccc(NC(=O)CSc2nc3ccccc3n2CC(=O)Nc2cccc(C)c2C)cc1`, the “activation” value is inactive: 0.817%.

Turning to `CCOc1ccccc1NC(=O)C(C)n1nnc2sc3c(c2c1=O)CCCC3` (configuration not stated), the “activation” value was inactive: -10.9%.

Consider `O=C(O)c1cccc(NC(=O)c2cccc(S(=O)(=O)Nc3cccc(F)c3)c2)c1`, for which the “activation” value is inactive: 7.98%.

Regarding `Cc1ccc(Cl)cc1N1CCN(C(=O)c2cnn(-c3ccc(Cl)cc3)c2C2CCNCC2)CC1`, the “activation” value is inactive: -14.7%.

`N#Cc1c[nH]n2c(NC3CCCC3)c(-c3ccc(Br)cc3)nc12`: the “activation” value was inactive: -5.65%.

In the case of `COc1cccc(C(=O)Nc2ccccc2SCc2cc(=O)c3cccc(C)c3[nH]2)c1`, the “activation” value is inactive: -11.1%.

In the case of `Cc1ccc(N2CCN(c3nc4ccccc4n4nnnc34)CC2)c(C)c1`, the “activation” value is inactive: -4.77%.

Take `Cc1cc(C)cc(NC(=O)c2cc(S(=O)(=O)N3CCOCC3)cn2C)c1`: the “activation” value is inactive: -15.1%.

Regarding `COc1cc(C(=O)OC(COCCC(C)C)CN2CCOCC2)cc(OC)c1OC` (configuration not stated), the “activation” value is inactive: -11.4%.

Turning to `COc1cccc(C(=O)Nc2ccc(-c3nc4ccc(C)cc4s3)cc2)c1OC`, the “activation” value is inactive: -10%.

On to `COc1cn(CC(=O)Nc2ccc(C)cc2C)c(CN2CCCCC2)cc1=O`, for which the “activation” value is inactive: -5.94%.

For the compound `O=C(CSc1nc2c([nH]c3ccccc32)c(=O)n1-c1cccc(C(F)(F)F)c1)N1CCCC1`, the “activation” value is inactive: -5.08%.

`CCOC(=O)c1cccc(NC(=O)C2(S(=O)(=O)c3ccc(C)cc3)CC2)c1`: the “activation” value was inactive: -11.1%.

Take `Cc1cccc(-c2nnn3c2nc(NCCC(C)C)c2ccccc23)c1`: the “activation” value is inactive: -6.3%.

In the case of `Cc1cc(C)c(NC(=O)Cn2nnc(-c3nc(-c4ccncc4)no3)c2N)c(C)c1`, the “activation” value was inactive: -12%.

Turning to `Cc1cc2c(cc1S(=O)(=O)N1CCC(C(N)=O)CC1)OCC(=O)N2`, the “activation” value was inactive: -7.58%.

In the case of `Cc1ccc(Nc2c(-c3ccc(N4CCOCC4)cc3)nc3ccc(Cl)cn23)cc1`, the “activation” value is inactive: 2.45%.

Take `CCOc1ccc(C2c3c(oc4ccccc4c3=O)C(=O)N2Cc2ccc3c(c2)OCO3)cc1` (configuration not stated): the “activation” value was inactive: -19.4%.

As to `CC(=O)C1=C(c2ccc(C)cc2)N(C(C)=O)n2c(nnc2-c2ccccc2)S1`, the “activation” value was inactive: -18.5%.

For the compound `COc1ccc(S(=O)(=O)NCC(c2ccc(N(C)C)cc2)N2CCCC2)cc1F` (configuration not stated), the “activation” value is inactive: -7.97%.

For `CCOc1cccc(C2c3c(oc4ccc(F)cc4c3=O)C(=O)N2CCOC)c1` (configuration not stated), the “activation” value was inactive: -10.6%.

With `CCCNC(=O)C1CCC(Cn2c(=O)c3sccc3n(CC(=O)N3CCCC(C)C3)c2=O)CC1` (configuration not stated), the “activation” value was inactive: -5.91%.

As to `Cc1cccc(NC(=O)CN2C(=O)COc3ccc(S(=O)(=O)Nc4ccccc4)cc32)c1C`, the “activation” value is inactive: -3.03%.

Regarding `Cc1[nH]c2ccc(C(=O)NCCc3ccccc3Cl)cc2c1C`, the “activation” value is inactive: -17%.

Consider `Cc1ccccc1Cn1cc(NC(=O)c2cc(-c3ccc(Cl)cc3)on2)cn1`, for which the “activation” value is inactive: -9.2%.

On to `Cc1ccc(Cl)cc1N1CCN(S(=O)(=O)c2ccc3oc(=O)c4ncn(C)c4c3c2)CC1`, for which the “activation” value is inactive: -0.0901%.

For `Cc1cccc(OCC(=O)NCC2(N3CCN(C)CC3)CCCCC2)c1`, the “activation” value is inactive: -15.6%.

With `CCC1CN(C(=O)N2CCC(C(=O)NCc3ccc(C)o3)CC2)c2ccccc2O1` (configuration not stated), the “activation” value is inactive: -13.2%.

`COc1ccc(Nc2cc(C(=O)NCc3ccccc3)c3ccccc3n2)cc1`: the “activation” value is inactive: 2.85%.

Consider `CCCS(=O)(=O)N1CC(=O)N(c2ccccc2C)C(C)(C(=O)NC2CCCCC2)C1` (configuration not stated), for which the “activation” value is inactive: -9.98%.

Regarding `Cc1ccc(S(=O)(=O)c2nnn3c2nc(NCc2ccc(F)cc2)c2sccc23)cc1C`, the “activation” value is inactive: -16.2%.

In the case of `CC(C)OCCCn1c(=O)c2ccccc2n2c(-c3ccc(F)c(F)c3)nnc12`, the “activation” value is inactive: -23%.

Take `CSc1ccc(CNC(=O)CN2C(=O)C3CCCCN3c3ccc(C(=O)N4CCCC4)cc32)cc1` (configuration not stated): the “activation” value is inactive: -17.5%.

For the compound `Cn1ccc2c(OCC(=O)Nc3ccc([N+](=O)[O-])cc3)cccc2c1=O`, the “activation” value was inactive: -18.9%.

For the compound `O=S(=O)(NCc1nc2cccnc2n1Cc1ccc(F)cc1)c1ccc(Cl)s1`, the “activation” value was inactive: 1.79%.

Take `COc1ccc(-c2nc3cc(C(C)C)ccc3o2)cc1NC(=O)c1ccc(C)c(Cl)c1`: the “activation” value is inactive: -23.4%.

With `COC(=O)c1cc2sc(C)cc2n1CC(=O)Nc1cccc(SC)c1`, the “activation” value is inactive: -42.5%.

`Cc1cccc(OCC(=O)Nc2ccc3oc(-c4ccccc4F)nc3c2)c1`: the “activation” value was inactive: -5.93%.

Take `COc1ccc(NC(=O)c2cc(S(=O)(=O)NCCC3=CCCCC3)ccc2F)cc1`: the “activation” value is inactive: -6.97%.

As to `FC(F)(F)c1ccc(-c2noc(-c3ccccc3Br)n2)cc1`, the “activation” value was inactive: -17.7%.
